In PubChem BioAssay AID1508624 (National Center for Advancing Translational Sciences (NCATS), 2021):
Hit rate of the full screen: of about 48,000 compounds, about 120 (0.25%) were called active. Roughly 4% stayed inconclusive and do not appear here. Calls come from the whole dose curve; as a rule, active = well fitted activation curve with a large enough effect; inconclusive = small, poorly fitted or top-dose-only effect, or another doubt; inactive = no such curve, though single readings can be large or run the other way. The list shows a part of the results.

Test: Primary qHTS for Identification of Small Molecule Activators of Huntingtin-Antisense Promoter Activity; note: nearly all actives have a fitted effect of over 55% in size
Settings: HEK293 HTT-AS promoter firefly luciferase reporter (activity 0% = vehicle and -100% = no light), 24 h; series mostly up to 57.5 µM; activity change, positive = activation: at the top concentration
How it was run: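 Firefly luciferase signal from promoter-reporter HEK293 cells was scaled between vehicle (0%) and zero RLU (-100%). Compounds were tested at final concentrations of up to 57.5 uM over 24 h at 37 degrees C. PTC124 at 50 uM final served as control inhibitor.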

Activity change, positive = activation, inactive:
Cc1ccc(NS(=O)(=O)c2ccc3c(c2)CCCN3C(=O)C2CCC2)cc1Cl -28.3%
Nc1c(C(=O)Nc2ccc(C(=O)O)cc2)sc2nc3c(cc12)CCCC3 -73.7%
CCOC(=O)C(=O)CCCCCCl -1.9%
COCCNc1nc2c(S(=O)(=O)c3ccc(C)c(C)c3)nnn2c2ccc(Cl)cc12 12%
COc1cc(OC)cc(C(=O)Nc2ccc(S(=O)(=O)Nc3ncccn3)cc2)c1 -17%
Cc1nc2nncn2c(NCc2ccc(F)cc2)c1C -85.4%
Cc1ccc(NC(=O)CCS(=O)(=O)c2cc3c4c(c2)CCN4C(=O)CC3)c(C)c1 -7.04%
O=C(NCc1ccc2c(c1)CCN2C(=O)c1ccc(Cl)cc1)c1cccc(F)c1 1.95%
O=C(Nc1nnc(S(=O)(=O)Nc2ccccc2)s1)c1ccccc1Cl -9.98%
O=C1OC2(c3ccccc31)c1cc(I)c(O)c(I)c1Oc1c2cc(I)c(O)c1I -24.9%
CC(=O)Nc1ccccc1 -2.58%
COc1cccc(C(c2c(O)cc(C)n(Cc3ccco3)c2=O)N2CCN(c3ccccc3)CC2)c1 (configuration not stated) -0.441%
COc1cc(Cl)c(C)cc1NC(=O)Cn1ncc2c([nH]c3ccccc32)c1=O -20.7%
COC(=O)c1cc2sccc2n1Cc1nc(-c2ccc(Cl)cc2)oc1C 19.6%
Cc1cc(C)n(C(C)CC(=O)NCc2ccc(N(C)C)cc2)n1 (configuration not stated) -13.6%
CCc1ccccc1NC(=O)c1ccc2c(c1)N(Cc1cc(C)ccc1C)C(=O)c1ccccc1S2(=O)=O -26.3%
C[N+]1(C)[C@@H]2C[C@@H](OC(=O)C(O)(c3cccs3)c3cccs3)C[C@H]1[C@@H]1O[C@@H]12 -6.2%
CCOCCCn1c(SCC(=O)Nc2ccc(C)cc2)nc2ccccc2c1=O -26.6%
COc1ccc(CNC(=O)C(C)n2ccc3cc(S(=O)(=O)N4CCCC4)ccc32)cc1OC (configuration not stated) -0.662%
Cc1cc(C)c(NC(=O)C2CCN(c3nnc(C)c4c(C)n(-c5ccccc5)nc34)CC2)c(C)c1 -17.6%
COc1ccccc1NC(=O)C1=C(C)Nc2nc(SCc3ccccc3C)nn2C1CC(C)C (configuration not stated) -6.65%
O=C(COc1ccccc1)Nc1nnc(S(=O)(=O)N2CCCC2)s1 -9.56%
O=C(OCC1CCCO1)c1ccc2c(c1)N(Cc1ccccc1Cl)C(=O)c1ccccc1S2(=O)=O (configuration not stated) -23.9%
COc1ccccc1NC(=O)C(Cc1ccccc1)NS(=O)(=O)c1ccc2c(c1)c(=O)n(C)c(=O)n2C (configuration not stated) -12.8%
CCOc1ccc(-n2c(=O)c3c4c(sc3n(CC(=O)Nc3cccc(C(F)(F)F)c3)c2=O)CCCCC4)cc1 -4.31%
O=C(NCc1ccc(F)cc1)c1c(O)nc2ccccn2c1=O -2.46%
Cc1cc(Nc2cccc(C(F)(F)F)c2)nc2ccc(NC(=O)c3ccc(=O)[nH]c3)cc12 -27.4%
